Data taken from a collection of fitness landscapes (doi:10.1126/science.1257360).
Some of the results follow.

B1: PhoQ; a variant is named by its letters at X, in order, P23837 (parent)
chain: MKKLLRLFFPLSLRVRFLLATAAVVLVLSLAYGMVALIGYSVSFDKTTFRLLRGESNLFYTLAKWENNKLHVELPENIDKQSPTMTLIYDENGQLLWAQRDVPWLMKMIQPDWLKSNGFHEIEADVNDTSLLLSGDHSIQQQLQEVREDDDDAEMTHSVAVNVYPATSRMPKLTIVVVDTIPVELKSSYMVWSWFIYVLSANLLLVIPLLWVAAWWSLRPIEALAKEVRELEEHNRELLNPATTRELTSLVRNLNRLLKSERERYDKYRTTLTDLTHSLKTPLXXLQXXLRSLRSEKMSVSDAEPVMLEQISRISQQIGYYLHRASMRGGTLLSRELHPVAPLLDNLTSALNKVYQRKGVNISLDISPEISFVGEQNDFVEVMGNVLDNACKYCLEFVEISARQTDEHLYIVVEDDGPGIPLSKREVIFDRGQRVDTLRPGQGVGLAVAREITEQYEGKIVAGESMLGGARMEVIFGRQHSAPKDE

Variants of: B1
Test: enrichment ratio after two sorts for PhoP signalling (ratio (wild type AVST 3.29)); higher = more functional
Details: with PhoP (E. coli)

Variant	enrichment ratio
HAMP	≤ 0.25
AVHT	≤ 0.25
HLRM	≤ 0.25
AKVI	5.34
KCEA	≤ 0.25
PVDM	≤ 0.25
VNLW	≤ 0.25
LYVL	≤ 0.25
TEDK	≤ 0.25
KELN	≤ 0.25
QRAL	≤ 0.25
EEHY	≤ 0.25
QVYI	≤ 0.25
AKGR	≤ 0.25
GVRW	≤ 0.25
CSFR	≤ 0.25
HVWP	≤ 0.25
QTRV	≤ 0.25
SKMQ	13.1
LEQK	≤ 0.25
PIHF	≤ 0.25
KSAQ	≤ 0.25
GHTN	12.9
WKPA	≤ 0.25
PQFK	≤ 0.25
QIQP	≤ 0.25

Variant	enrichment ratio
QDRS	≤ 0.25
YDWY	≤ 0.25
DSFD	0.472
ANTI	11.4
GTSL	9.63
YDRT	≤ 0.25
MMIK	≤ 0.25
DAQY	≤ 0.25
HNGC	≤ 0.25
MATH	≤ 0.25
NFQK	≤ 0.25
DENN	≤ 0.25
DRHR	≤ 0.25
GPYE	≤ 0.25
AYFG	≤ 0.25
NWFY	≤ 0.25
TTIF	≤ 0.25
HPLF	≤ 0.25
SRTN	≤ 0.25
IKIE	≤ 0.25
YRKP	≤ 0.25
NCSQ	≤ 0.25
LDSC	≤ 0.25
ATVF	16.1
EPHG	≤ 0.25
HYFA	≤ 0.25

Variant	enrichment ratio
EPGP	≤ 0.25
RVAE	≤ 0.25
HTHT	≤ 0.25
SWME	≤ 0.25
SMSF	5.95
HYFL	≤ 0.25
MMLY	≤ 0.25
PEEL	≤ 0.25
LCQA	≤ 0.25
HIRG	≤ 0.25
LAKV	≤ 0.25
VVLV	0.977
IPVA	≤ 0.25
VVIK	≤ 0.25
HSRM	≤ 0.25
RTEQ	≤ 0.25
PLPT	≤ 0.25
GVVY	≤ 0.25
QPMY	≤ 0.25
VIAD	≤ 0.25
KYHC	≤ 0.25
QPPN	≤ 0.25
GTLG	6.02
PMRQ	≤ 0.25
HIYT	≤ 0.25
HGNH	≤ 0.25

Variant	enrichment ratio
KHGV	≤ 0.25
TRID	≤ 0.25
PNQE	≤ 0.25
RYAA	≤ 0.25
VTAR	≤ 0.25
YWQK	≤ 0.25
LPVP	≤ 0.25
TPIT	≤ 0.25
AGYQ	≤ 0.25
RRYH	0.448
WEEY	≤ 0.25
LVAV	≤ 0.25
IGPE	≤ 0.25
SMKD	≤ 0.25
FDVP	≤ 0.25
DISA	≤ 0.25
DNVA	≤ 0.25
KCPG	≤ 0.25
HQTP	≤ 0.25
PRCF	≤ 0.25
MKTT	≤ 0.25
DLQY	≤ 0.25
VSLK	≤ 0.25
IIYG	≤ 0.25
SFCR	≤ 0.25
QMQM	≤ 0.25

Variant	enrichment ratio
GLTW	≤ 0.25
YEVY	≤ 0.25
KSIP	≤ 0.25
KLCA	≤ 0.25
GVAG	≤ 0.25
EIIK	≤ 0.25
RTPT	≤ 0.25
LKYG	≤ 0.25
PGAV	≤ 0.25
ASNS	≤ 0.25
YPDM	≤ 0.25
HTMH	≤ 0.25
KPTD	≤ 0.25
NMKR	≤ 0.25
QFLG	≤ 0.25
NTYC	≤ 0.25
GTLI	15.8
NMQM	≤ 0.25
NIRH	≤ 0.25
IGNE	≤ 0.25
VIAI	≤ 0.25
KTVQ	≤ 0.25
PHTP	≤ 0.25
EPYA	≤ 0.25
EVRC	≤ 0.25
QVDT	≤ 0.25

Variant	enrichment ratio
WNSI	≤ 0.25
PKLT	≤ 0.25
GDSD	≤ 0.25
LNYI	≤ 0.25
PSEG	≤ 0.25
MFEN	≤ 0.25
YLTG	≤ 0.25
CHMK	≤ 0.25
NWKF	≤ 0.25
YTKM	≤ 0.25
QMAW	≤ 0.25
RKWG	≤ 0.25
QSSG	6.34
IKQC	≤ 0.25
YLTN	≤ 0.25
LVCY	≤ 0.25
FHCN	≤ 0.25
EKEF	≤ 0.25
YDFM	≤ 0.25
TRQS	≤ 0.25
IRHM	≤ 0.25
NCTR	≤ 0.25
TQWP	≤ 0.25
